From US12497460B2, “Anti-MSR1 antibodies and methods of use thereof” (REGENERON PHARMACEUTICALS, INC., priority 2018, dated 2025) come the findings set out here.

Assay [1] has as its target HMM-mfMSR1 (monkey MSR1 extracellular domain). The assay is described as follows: Biacore surface plasmon resonance binding kinetics of anti-MSR1 mAbs, antibody-capture format. The settings on record: analyte HMM-mfMSR1, NB = no binding observed; for kd: * = no dissociation observed, kd manually fixed at 1.00E−05; for ka: antibody-capture format. As to the method: Binding affinities and kinetic constants of human anti-MSR1 antibodies for different MSR1 reagents were determined by real-time surface plasmon resonance (Biacore 4000). All binding studies were performed in 10 mM HEPES, 150 mM NaCl, 3 mM EDTA, and 0.05% v/v Surfactant Tween-20, pH 7.4 (HBS-ET) running buffer at 25° C. and 37° C.
(§1) The association rate (ka) and dissociation rate (kd) were determined by fitting the real-time binding sensorgrams to a 1:1 binding model with mass transport limitation using Scrubber 2.0c curve-fitting software. Binding dissociation equilibrium constant (KD) and dissociative half-life (t½) were calculated from the kinetic rates as: […]
(In general: Surface plasmon resonance follows binding to a sensor surface in real time, without labels.)

The target of assay [2] is T1, MSR1 on differentiated THP-1 cells (Homo sapiens, UniProt P21757).
T1 construct: endogenous in cells; host or cells: THP-1 cells differentiated with PMA
T1 sequence (P21757 1-451): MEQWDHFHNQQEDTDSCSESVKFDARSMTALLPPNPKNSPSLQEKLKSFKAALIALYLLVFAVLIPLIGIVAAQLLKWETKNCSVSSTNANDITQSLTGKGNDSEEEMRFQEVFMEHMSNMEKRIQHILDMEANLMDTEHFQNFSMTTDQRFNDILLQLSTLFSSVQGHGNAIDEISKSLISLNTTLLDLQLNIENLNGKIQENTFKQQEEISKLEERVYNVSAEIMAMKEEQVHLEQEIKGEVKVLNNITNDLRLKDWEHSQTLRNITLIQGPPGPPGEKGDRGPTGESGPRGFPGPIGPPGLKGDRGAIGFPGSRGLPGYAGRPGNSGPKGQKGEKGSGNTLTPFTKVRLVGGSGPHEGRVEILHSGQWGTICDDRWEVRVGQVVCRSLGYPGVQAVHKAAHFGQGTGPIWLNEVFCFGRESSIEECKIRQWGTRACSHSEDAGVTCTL
The assay is described as follows: Binding and internalization of cell-surface expressed MSR1 in differentiated THP-1 cells. It is filed as cell-based. Particulars: 10 μg/mL antibody. The method, then:
Exemplary anti-MSR1 antibodies were assessed for their ability to bind and internalize MSR1 on MSR1-expressing cells.
The THP-1 cells were allowed to differentiate for 4 days at 37° C. in 5% CO2. […] The remaining two plates were incubated at 37° C. for 1 hour followed by fixation and staining for 20 minutes using a solution of 4% PFA+5 μM DRAQ5 diluted in PBS (internalization plates). After fixation, all plates were washed once with PBS. […] The remaining plates were incubated with PBS only. Confocal images were acquired on the Opera Phenix (Perkin Elmer) at 40× magnification. […] The total binding at 4° C. (RFU values of 4° C. unquenched wells), total binding at 37° C. (RFU values of 37° C. unquenched wells), the total internalized RFU, and % Internalization were determined for each antibody as shown in Table 14.
For all calculations, background fluorescence from unstained wells was subtracted from every well. Total internalized RFU was calculated as follows: Total RFU of 37° C. unquenched samples−Surface RFU at 37° C. Surface RFU is defined as unquenched RFU at 37° C.−quenched RFU at 37° C.)/QE. QE (quenching efficiency) is defined as: 1−(Total RFU of 4° C. quenched sample/Total RFU of 4° C. unquenched sample). The % Internalization was determined from the following formula: (Total internalized RFU at 37° C./Total RFU at 37° C.)*100.

The subject of assay [3] is B16F10.9 cells (MSR1 negative). The assay is described as follows: Flow cytometry binding, MSR1 negative cells. It is filed as cell-based, mouse. Particulars: 10 μg/mL antibody. The method, then: Relative cell surface binding of the anti-MSR1 antibodies to mouse MSR1 expressing cells was determined by flow cytometry using MSR1 positive RAW264.7 cells (ATCC, Catalog #TIB-71) and MSR1 negative B16F10.9 cells (Lin et al. 1998. PNAS 95:8829-8834). For the assay, cells were plated in PBS without calcium and magnesium (VWR Cat #45000-446) and 2% FBS (Saradigm Cat #1500-500) (Staining Buffer) in 96 well V-bottom plates (Axygen Scientific, Cat #P-96-450-V-C-S). To block binding to Fc receptors, RAW264.7 cells were incubated for 30 minutes at 4° C. with 500 μg/mL mouse IgG (Jackson ImmunoResearch, Cat #015-000-003) diluted in staining buffer, while B16F10.9 cells remained in staining buffer. Following Fc receptor blocking, 10 μg/mL of anti-MSR1 antibodies or an isotype control antibody were added to the cells and were subsequently incubated for 30 minutes on ice. For a positive control, a commercial anti-mouse MSR1 (Sino Biological, Cat #50129-R004) antibody was used, while a rabbit IgG antibody (Thermo Scientific, Cat #26102) was used as a negative control. […] Cells were subsequently washed and fixed using a 50% solution of Cytofix (BD Biosciences, Cat #554655) diluted in PBS. […] The signal to noise (S/N) was determined by calculating the ratio of the anti-MSR1 antibodies or the control antibodies MFI to the unstained sample MFI (Table 11).
Background: In flow cytometry, cells or beads pass a laser one at a time.

For assay [4], the system named is LXR (THP1/LXR-Luc cells). The assay is described as follows: LXR-luciferase reporter bioassay (Example 31). It is filed as cell-based, human. Particulars: 48 hours. An excerpt: Generation of assay cell line. To test the efficacy of anti-MSR1 antibody-LXR conjugates in vitro, a cell-based LXR responsive luciferase reporter assay was developed. To generate the assay cell line, a LXR regulated luciferase reporter gene [Cignal Lenti LXR Reporter (luc) kit (Qiagen, Cat #CLS-001 L)] was transduced into THP1 cells, and cells were selected for two weeks in puromycin. The lentivirus expresses the firefly luciferase gene under the control of a minimal CMV promoter and tandem repeats of the LXR transcriptional response element. The resulting cell line is referred to as THP1/LXR-Luc cells.
Assay protocol. THP1/LXR-Luc cells were seeded onto 96 well plates at 40,000 cells/well in media containing RPMI supplemented with 10% FBS and pencillin/streptomycin and subsequently differentiated with 200 nM Phorbol Myristate Acetate (PMA) for 3 days. […] Forty-eight hours later, luciferase activity was determined after the addition of One-Glo™ reagent (Promega, Cat #E6130) to each well. Relative light units (RLUs) were measured on a Victor luminometer (PerkinElmer) and EC50 values were determined using a four-parameter logistic equation over a 10-point dose response curve (GraphPad Prism). The signal to noise (S/N) was determined by calculating the ratio of RLU of standard one over RLU of standard eight for each of the unconjugated anti-MSR1 antibodies or free payloads. […]
On the technique in general: A reporter such as luciferase makes a cellular process visible.

Assay [5] addresses T2, His9-hMSR1 (human MSR1 extracellular domain) (Homo sapiens, UniProt P21757).
T2 construct: human MSR1 extracellular domain expressed with a N-terminal nonahistidine tag; His9 (nonahistidine) (N); purchased R&D Systems 2708-MS
T2 sequence (P21757 77-451 limits assumed): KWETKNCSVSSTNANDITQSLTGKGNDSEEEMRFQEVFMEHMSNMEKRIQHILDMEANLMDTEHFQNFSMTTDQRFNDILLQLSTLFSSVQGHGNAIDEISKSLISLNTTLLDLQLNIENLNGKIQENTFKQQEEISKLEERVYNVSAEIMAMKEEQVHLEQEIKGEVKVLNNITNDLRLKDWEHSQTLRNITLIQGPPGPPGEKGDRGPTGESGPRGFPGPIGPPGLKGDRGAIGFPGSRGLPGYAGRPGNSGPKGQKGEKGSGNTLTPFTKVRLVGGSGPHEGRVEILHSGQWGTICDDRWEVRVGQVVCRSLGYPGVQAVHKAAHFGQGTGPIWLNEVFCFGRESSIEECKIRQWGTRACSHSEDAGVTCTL
The assay is described as follows: Biacore T200 surface plasmon resonance binding kinetics of anti-MSR1 antibody-drug conjugates and parental antibodies. Particulars: 25° C. The method, then:
The MSR1 antibodies disclosed herein were conjugated to various liver X receptor (LXR) payloads or various steroid payloads. This example describes how equilibrium dissociation constant (KD) values for human MSR1 reagents binding to human anti-MSR1 antibody-drug conjugates and their corresponding unconjugated parental antibodies were determined using a real-time surface plasmon resonance-based Biacore T200 biosensor.
All binding studies were performed in 10 mM HEPES, 300 mM NaCl, 3 mM EDTA, and 0.05% v/v Surfactant Tween-20, pH 7.4 (HBS-ET) running buffer at 25° C. The Biacore CM4 sensor chip surface was first derivatized by amine coupling with the goat anti-human Fcγ specific polyclonal antibody (Jackson ImmunoResearch Laboratories, Cat #BR-1008-39) to capture anti-MSR1 monoclonal antibodies. Binding studies were performed on human MSR1 extracellular domain expressed with a N-terminal nonahistidine tag (His9-hMSR1; R&D Systems, Cat #2708-MS).
as §1

B1: H1H27751P-N297Q: one of "Twelve anti-MSR1 antibodies"; "made with an N297Q single point mutation in human Fcγ portion" (antibody, V domains shown)
VH: EVQLVESGGGLVQPGGSLRLSCAASGFTFSNYAMHWVRQAPGKGLEYVSAISSNGGSTYYADSVKGRITISRDNSKNTLYLQMGSLRAEDMAVYYCARGRPYYYYFGMDVWGQGTTVTVSS
VL: [here about 100 residues without letters]QFPLNFGGGTKVEIKR
In assay [1] (25° C.), B1 gave a kd of 0.000749 s⁻¹ and a ka of 744000 M⁻¹ s⁻¹. In assay [1] (37° C.), this molecule displayed a kd of 0.0018 s⁻¹ and a ka of 1.17e+06 M⁻¹ s⁻¹. Also, the “% Internalization” value in assay [2] was determined as 84.9%. Also, in assay [2] (4° C.), the “Total Binding at 4° C.” value is 5831744. For the same molecule, in assay [2] (37° C.), the “Total Binding at 37° C.” value stood at 7998767 and the “Total Internalized RFU” value is reported as 6787876 RFU. In addition, the “B16F10.9 MFI” value in assay [3] is on record as 4992.

B2: H1H27751P-N297Q-LP1 (conjugate)
VH: EVQLVESGGGLVQPGGSLRLSCAASGFTFSNYAMHWVRQAPGKGLEYVSAISSNGGSTYYADSVKGRITISRDNSKNTLYLQMGSLRAEDMAVYYCARGRPYYYYFGMDVWGQGTTVTVSS
VL: [here about 100 residues without letters]QFPLNFGGGTKVEIKR
As usually defined, the EC50 is the concentration needed to bring the measured effect to its halfway point. In assay [4] (differentiated THP1/LXR-Luc cells), B2 showed a 50% effective concentration (EC50) of 1.54 nM. Besides, the S/N in assay [4] (signal to noise, ratio of RLU of standard one over standard eight) is 17.9. Further, the ka in assay [5] (Table 19, antibody-LXR ADCs and unconjugated antibodies) stood at 229000 M⁻¹ s⁻¹. Moreover, the kd in assay [5] (Table 19, * = no dissociation observed, kd manually fixed at 1.00E−05) amounted to 0.000152 s⁻¹.
